Values marked as one replicate rest on one cluster of the flow cell; about a third of the high ones do not repeat.
System: ATP
Assay: switch fluorescence ratio, 500 uM ATP over buffer (Cy3 cluster intensity, sum of 5 cycles each) (fold (ratio)); higher = stronger signal-on switching upon ATP binding; sequences stand for … in TCGTCGGCAGCGTCAGATGTGTATAAGAGACAGTTTTTTTTTTTTTTTTTTTTTTTTT…TC
Details: aptamer strand: ATP DNA aptamer (quencher-CACCTGGGGGAGTATTGCGGAGGAAGG + anchor), 100 nM annealed; ATP concentration: 500 uM; one replicate
Method in brief: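 Exposure to 500 uM ATP lasted 15 min at 22 °C before imaging, and a selection-buffer image was taken beforehand, for Cy3-labelled switching-strand clusters on a modified Illumina MiSeq flow-cell annealed to 100 nM quencher-labelled ATP aptamer. Five buffer/ATP cycles were run with NaOH stripping and re-annealing between them. The fluorescence ratio per cluster is summed target-cycle over summed buffer-cycle Cy3 intensity, averaged per switch-domain sequence. Clusters outside 100-1000 RFU were excluded.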

TATCCAACT
switch fluorescence ratio: 0.977

GAACGTAGGC
switch fluorescence ratio: 1.03

GGCTTGGGGG
switch fluorescence ratio: 1.02

GGATGATTGC
switch fluorescence ratio: 0.939

CAGATTCGGC
switch fluorescence ratio: 0.99

AAGGTCGGA
switch fluorescence ratio: 0.957

TGAGTTTAGT
switch fluorescence ratio: 1

AACGACGCGC
switch fluorescence ratio: 2.31

GGGGCACCTT
switch fluorescence ratio: 0.999

GCTGGTAGCT
switch fluorescence ratio: 0.985

TGAGACCTGT
switch fluorescence ratio: 1.03

CTGCATATTT
switch fluorescence ratio: 1.16

CTGGCACTAT
switch fluorescence ratio: 1.05

ACGTAGATTA
switch fluorescence ratio: 1.07

GGTCGGTGCT
switch fluorescence ratio: 0.947

TTATTACGCA
switch fluorescence ratio: 1.24

AGACTAAAT
switch fluorescence ratio: 0.997

AGCCCCATCT
switch fluorescence ratio: 0.956

CCTGCTTTGT
switch fluorescence ratio: 0.983

GCATGCCTGT
switch fluorescence ratio: 1.01

TACCTAAGGC
switch fluorescence ratio: 1.14

TAAATTACAA
switch fluorescence ratio: 1.02

GTGTATTGGA
switch fluorescence ratio: 1

ACCCTGCGTC
switch fluorescence ratio: 1.07

GTTCGAGCAT
switch fluorescence ratio: 1.04

CAATCCGATG
switch fluorescence ratio: 1.04

CGGCGGGCAG
switch fluorescence ratio: 0.932

GTCGCCCGCT
switch fluorescence ratio: 0.938

CGGCTGGAAG
switch fluorescence ratio: 0.992

CAGAGGGACG
switch fluorescence ratio: 1.12

TGCCAATGCG
switch fluorescence ratio: 1.08

AACTCGCCTG
switch fluorescence ratio: 1.05

GGACCGTCGA
switch fluorescence ratio: 1.05

AGGCGGGTCT
switch fluorescence ratio: 1.02

AAAATAATCG
switch fluorescence ratio: 1.02

TTGGCGGATG
switch fluorescence ratio: 0.996

TTAGTTCGTG
switch fluorescence ratio: 1.01

AAACGAGGCA
switch fluorescence ratio: 1.03

GCGGGGCCGG
switch fluorescence ratio: 0.967

TGATAAGACT
switch fluorescence ratio: 1.01

AGCGAGTATG
switch fluorescence ratio: 1.01

GACCTGAAAT
switch fluorescence ratio: 1.08

GGGGTCCCTG
switch fluorescence ratio: 0.955

AAATCTATTG
switch fluorescence ratio: 1.01

TGAGTATGA
switch fluorescence ratio: 1.03

GAAGTGAAGC
switch fluorescence ratio: 1.02

AAGGGGTCCC
switch fluorescence ratio: 0.932

TTTCCAGAGG
switch fluorescence ratio: 1.25

ATGGACTTAA
switch fluorescence ratio: 0.984

AGACCGTCCT
switch fluorescence ratio: 1.15

AGCTTGTGGG
switch fluorescence ratio: 0.974

GATACCTGAG
switch fluorescence ratio: 1.51

ATTCCCTTAC
switch fluorescence ratio: 1.53

TGCCGTTCA
switch fluorescence ratio: 0.997

GAATCACACG
switch fluorescence ratio: 1.02

TCTGATTCGG
switch fluorescence ratio: 0.978

CTAGAATTGC
switch fluorescence ratio: 1.04

GTGGGAGTGG
switch fluorescence ratio: 1.01

TACGTCG
switch fluorescence ratio: 1.04

CGTCGGGTAC
switch fluorescence ratio: 1.73

CCGCAGGTTC
switch fluorescence ratio: 4.39

GTTCTTTTGT
switch fluorescence ratio: 0.958

TCGAGGGTTG
switch fluorescence ratio: 0.983

TCCATGGGCT
switch fluorescence ratio: 1.02

TCTTACAGAC
switch fluorescence ratio: 1.58

GATATACGAC
switch fluorescence ratio: 1.3

AAAATCTGAG
switch fluorescence ratio: 1.09

CCGACAAGTA
switch fluorescence ratio: 4.59

GATTCCCGG
switch fluorescence ratio: 0.98

CCTAGTCGTC
switch fluorescence ratio: 0.979

ACATGGTATC
switch fluorescence ratio: 0.989

CGAGGTCGTA
switch fluorescence ratio: 0.975

CATGGAGGCT
switch fluorescence ratio: 0.953

GGGCAGCCCC
switch fluorescence ratio: 1.04

CTGTGTCGGT
switch fluorescence ratio: 0.97

TCCACCGGGC
switch fluorescence ratio: 1.17

CCCGAGTGGC
switch fluorescence ratio: 1.08

AATGCAGGTC
switch fluorescence ratio: 1.02

GAGATCCCAA
switch fluorescence ratio: 1.01

ATGCGAAGCG
switch fluorescence ratio: 0.926

ACGCCGCGTG
switch fluorescence ratio: 1.1

TTACAGGGTC
switch fluorescence ratio: 0.974

AACCTTGCAC
switch fluorescence ratio: 2.14

ACCGTGCTGT
switch fluorescence ratio: 1.03

CTACGCGGTA
switch fluorescence ratio: 1.84

CGAGCATGGG
switch fluorescence ratio: 1.13

CGAGGGGCCG
switch fluorescence ratio: 0.932

TGCGTCCGCG
switch fluorescence ratio: 1.16

CAACAGTGCC
switch fluorescence ratio: 1.04

AATTCTTACG
switch fluorescence ratio: 1.02

ATGGTCACTT
switch fluorescence ratio: 0.999

GACTATAGCA
switch fluorescence ratio: 1.06

AGCTGATGTC
switch fluorescence ratio: 1.03

GACAACCCCG
switch fluorescence ratio: 1.02

GTCAGAGATG
switch fluorescence ratio: 1

CAGTATGGC
switch fluorescence ratio: 1.03

TACGAATAGC
switch fluorescence ratio: 1.12

AAATCCAATC
switch fluorescence ratio: 1.04

AAAAGCCCTA
switch fluorescence ratio: 0.959

AACGCAGTTA
switch fluorescence ratio: 0.972

ATCAGAATAA
switch fluorescence ratio: 1.04

CCCCAGAAGA
switch fluorescence ratio: 1.1

GCCGGTGTAA
switch fluorescence ratio: 0.977

TTGTTCGTAA
switch fluorescence ratio: 1.04

TATCCCAGGT
switch fluorescence ratio: 1.21

ACTTATTATC
switch fluorescence ratio: 1.02

TGTTTGC
switch fluorescence ratio: 1.02

ACGTGATATC
switch fluorescence ratio: 1.84

GTGTGGACGT
switch fluorescence ratio: 0.947

CTACAGGCT
switch fluorescence ratio: 1

ATTCACCTGA
switch fluorescence ratio: 1.07

GGGGCAGCAA
switch fluorescence ratio: 1.53

ATCTGATGT
switch fluorescence ratio: 1.03

TACTGAGATT
switch fluorescence ratio: 1.05

TATGGGAATT
switch fluorescence ratio: 0.976

CCTATGCGAG
switch fluorescence ratio: 1.61

TTCGACTAAG
switch fluorescence ratio: 1.01

GGCCCAAAAG
switch fluorescence ratio: 0.973

TAATATGTT
switch fluorescence ratio: 0.989

TTGGGATCAT
switch fluorescence ratio: 1.03

CATGTGCTAT
switch fluorescence ratio: 1.1

TATCGTTAT
switch fluorescence ratio: 1.01

GTATTCAGCG
switch fluorescence ratio: 1.03

GTGGGGGCAC
switch fluorescence ratio: 1.1

GTGCGAAGTG
switch fluorescence ratio: 1

AAGCAAATTC
switch fluorescence ratio: 1.84

ATCGGACTGT
switch fluorescence ratio: 0.988

AAGTATAAAA
switch fluorescence ratio: 0.969

TTGGTTACCG
switch fluorescence ratio: 1.02

GGCACTGGGT
switch fluorescence ratio: 0.991

ACTAACGCTC
switch fluorescence ratio: 1.27

AACGTCGAGA
switch fluorescence ratio: 0.986

GTCCCAGATC
switch fluorescence ratio: 1.02

CCCCGTTGAT
switch fluorescence ratio: 1.61

ATAAAACTGG
switch fluorescence ratio: 1.03

GTAAATGCTG
switch fluorescence ratio: 0.855

TAGTTACTCA
switch fluorescence ratio: 1.04

AAGTGTTACA
switch fluorescence ratio: 1

AACCCATTTA
switch fluorescence ratio: 1

GATATGACA
switch fluorescence ratio: 1.03

TCCTATAGAG
switch fluorescence ratio: 1.01

ACATGAGCGA
switch fluorescence ratio: 0.881

TTATTAGTCC
switch fluorescence ratio: 1.08

GAAAATTTGC
switch fluorescence ratio: 1.01

AAGTGTATAC
switch fluorescence ratio: 1.04

GGTTAGTTGT
switch fluorescence ratio: 0.994

ATAACGGCTA
switch fluorescence ratio: 1.02

CGACCTGTGT
switch fluorescence ratio: 1.19

TGCATTCTCG
switch fluorescence ratio: 1.08

AGAGCGAAAA
switch fluorescence ratio: 0.984

CATCTTTATG
switch fluorescence ratio: 1

CCATGCCAGC
switch fluorescence ratio: 1.06

TAATTACGAT
switch fluorescence ratio: 1.03

AATGACCCGA
switch fluorescence ratio: 1.07

ACGAGTGGCT
switch fluorescence ratio: 0.967

TCCATCGACC
switch fluorescence ratio: 1.09

CTTAGAAGCT
switch fluorescence ratio: 0.984

Reference: the supplement of paper PMC10126150
